The full ranking holds about 110,000 compounds; the median of “z-score” is about -0.1, and the highest 2% start at about 2. This is one part of the list.
Target: Metabotropic glutamate receptor 8 (Rattus norvegicus) (UniProt P70579)
Assay: mGluR8 Gi/Go-coupled signaling modulation – cell-based, rat, thallium flux, HTS, primary screen (AID 488969)
Conditions: HEK293 rat mGluR8, GIRK (G protein-gated inwardly rectifying potassium channel) thallium flux, FluoZin2; at 10 µM; stronger effect = higher value; submaximal glutamate (EC20) added with thallium

UniProt P70579, sequence (P70579 whole entry, looked up): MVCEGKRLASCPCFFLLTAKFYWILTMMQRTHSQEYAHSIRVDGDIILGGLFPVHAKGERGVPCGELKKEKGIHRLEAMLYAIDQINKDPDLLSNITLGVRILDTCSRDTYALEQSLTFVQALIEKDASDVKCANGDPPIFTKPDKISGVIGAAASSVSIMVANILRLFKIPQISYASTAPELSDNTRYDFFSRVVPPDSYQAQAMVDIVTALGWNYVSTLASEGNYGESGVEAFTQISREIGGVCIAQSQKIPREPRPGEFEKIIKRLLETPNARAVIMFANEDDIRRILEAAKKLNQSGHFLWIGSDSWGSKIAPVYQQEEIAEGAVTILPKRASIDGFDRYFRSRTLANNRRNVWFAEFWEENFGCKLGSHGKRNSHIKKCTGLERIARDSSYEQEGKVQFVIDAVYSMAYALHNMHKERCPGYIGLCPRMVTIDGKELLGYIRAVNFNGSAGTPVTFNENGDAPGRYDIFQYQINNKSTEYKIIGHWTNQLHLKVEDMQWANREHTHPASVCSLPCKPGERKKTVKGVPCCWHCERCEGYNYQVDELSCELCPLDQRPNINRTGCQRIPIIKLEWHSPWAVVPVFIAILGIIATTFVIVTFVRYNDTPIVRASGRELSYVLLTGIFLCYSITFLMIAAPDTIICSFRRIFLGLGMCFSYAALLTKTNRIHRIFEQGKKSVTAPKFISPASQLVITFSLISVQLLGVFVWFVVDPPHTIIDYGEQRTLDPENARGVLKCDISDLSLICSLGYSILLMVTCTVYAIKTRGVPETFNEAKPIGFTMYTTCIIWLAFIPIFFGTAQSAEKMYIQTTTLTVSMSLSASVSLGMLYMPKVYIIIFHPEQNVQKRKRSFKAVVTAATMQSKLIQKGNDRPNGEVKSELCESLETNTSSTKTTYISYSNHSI

Structure (SMILES) | z-score
Cc1cccc(-n2c(CCn3nc(C)c([N+](=O)[O-])c3C)n[nH]c2=S)c1 | -0.129
O=C(NC1CCCCC1)N1CCCC1 | 0.37
CCOC(=O)c1cccc(NC(=O)/C(=C\c2ccccc2)NC(=O)c2ccccc2Cl)c1 | -0.208
CCCOc1ccc(C(=O)c2nc3c(n2O)CCCCC3)cc1 | 0.0386
O=C(CC1SC2=NCCN2C1=O)Nc1ccc(Cl)cc1 (centres undefined) | 0.137
CC1(C)CC(=O)C2=C(C1)NC(Nc1nc3ccccc3o1)=NC21CCCC1 | -0.199
O=c1[nH]c(-c2ccccc2F)nc2c1sc(=S)n2Cc1ccccc1 | -0.139
CCOC(=O)c1c(C)nc2c(c1-c1ccccc1)C(=O)c1ccccc1-2 | -0.384
O=C1CCC(C(=O)OCc2ccccc2)N1 (centres undefined) | 1.22
CCn1cc(C(=O)N=c2sc3ccccc3n2C)c(=O)c2ccc(C)nc21 | -0.387
CC(Oc1ccc(Cl)cc1Cl)C(=O)Nc1ncccn1 (centres undefined) | -2.15
CCOc1cccc(=O)c2c(C)oc(C)c12 | -0.298
N#Cc1ccccc1OCC(=O)NC(N)=O | 0.00914
CCn1ncc(/C=N/O)c1C | -0.443
O=C1C(C23CC4CC(CC(C4)C2)C3)C(=O)N(c2ccccc2)N1c1ccccc1 | 0.139
O=c1c2c(-c3cccs3)csc2ncn1-c1ccccc1 | -0.0624
NC(=O)c1cc(-c2ccccc2)sc1NC(=O)CN1CCCCC1 | 0.0407
COc1cc(-c2nnc(SCc3c(F)cccc3Cl)o2)cc(OC)c1OC | -0.215
Cc1ccc(C)c(NC(=S)NNC(=O)c2ccc(Br)o2)c1 | 0.537
Clc1ccc(OCc2nnc(SCc3nc4ccccc4[nH]3)n2Cc2ccco2)cc1 | -0.306
CNc1nc(-c2ccccc2)cc(C(F)(F)F)c1C#N | -0.14
O=C1C2C(c3ccccc3)C=CC(c3ccccc3)C2C(=O)N1c1cccnc1 (centres undefined) | -0.117

Structure (SMILES) | z-score
Cc1ccc(C(=O)Nc2ccncc2)o1 | 0.107
Cc1ccc(C(=O)N2CC3(C)CN(C(=O)c4ccc(C)cc4)CC(C)(C2)C3=O)cc1 | -0.128
O=C(Cn1c(NCCO)nc2ccccc21)NCCc1ccccc1 | -1.04
COc1ccc(NC(=O)CNS(=O)(=O)c2ccccc2)cc1Cl | 0.563
N#CC1=C(N)N(c2ncn[nH]2)C2=C(C(=O)CCC2)C1c1ccc(F)cc1 (centres undefined) | -0.0439
COc1nc(Cl)cn(-c2ccc(C)cc2)c1=O | -0.0681
C=CCn1c(SCC(=O)NC2CCCCC2)nnc1-c1sc(N)nc1C | -0.0778
COc1cccc(-c2cc(C(F)(F)F)nc(N3CCN(c4ccccc4)CC3)n2)c1 | -1.21
CC(C)(C)c1ccc(C(=O)c2c[nH]c(C(=O)NCc3cccnc3)c2)cc1 | -0.286
C=CCSc1nnc(-c2cc3c(s2)-c2ccccc2CC3)o1 | -0.128
O=C(NCc1ccccc1)C1CC(=O)N(c2ccc(OCC(=O)N3CCCC3)cc2)C1 (centres undefined) | -0.544
COc1cc2c(cc1OC)CN(Cc1cc(=O)oc3cc(C)c(C)cc13)CC2 | 0.756
Cc1ccccc1-n1c(C)nc2ccccc21 | -1.67
CCOCCCNc1nc2c(C)cccn2c(=O)c1/C=C1\SC(=S)N(CC(C)C)C1=O | -0.00528
Cc1c(NC(C)c2ccccc2O)c(=O)n(-c2ccccc2)n1C (centres undefined) | 0.152
Cc1ccc(N2C(=O)CN(Cc3sccc3C)C2=S)cc1C | 0.0203
C=CCN1C(=O)/C(=C/c2ccc(O)c(OC)c2)S/C1=N/c1nccs1 | -0.0981
Cc1ccc(-n2c(C)cc(/C=N/NC(N)=S)c2C)cc1 | -0.0027
CCc1cccc(CC)c1NC(=S)N1CCn2cccc2C1c1cccnc1 (centres undefined) | 0.37
Cc1ccc(-n2c(N)c(C(=O)Nc3c(C)n(C)n(-c4ccccc4)c3=O)c3nc4ccccc4nc32)cc1 | -0.373
O=C(Nc1cc(=O)c2ccccc2o1)N1CCOCC1 | 0.0681
CCc1cccc(NC2c3ccccc3C(=O)N2c2ccc(C)cn2)c1 (centres undefined) | -0.5

Structure (SMILES) | z-score
O=C(CS(=O)CC(=O)Nc1cccc2c1CCCC2)Nc1ccc(F)cc1 (centres undefined) | -0.101
N#Cc1c(Sc2ncc(C(F)(F)F)cc2Cl)nsc1C/C=N\OCc1ccccc1Br | -0.103
CCCCn1nnc(NC(=O)c2ccco2)n1 | -0.115
CN(C)S(=O)(=O)c1ccc(C(=O)Nc2nc(-c3cccs3)cs2)cc1 | 0.434
CCOC(=O)c1cnc(SC2CC(=O)N(c3ccc(OC)c(OC)c3)C2=O)nc1N (centres undefined) | -0.0718
COc1ccc(S(=O)(=O)N(C)CC(=O)Nc2ccccc2C(F)(F)F)cc1OC | 0.543
COc1ccc(N(C(C)=O)S(=O)(=O)c2cccs2)cc1 | 0.0114
CC(=O)N/C(=N\OCc1ccc(Br)cc1)c1nonc1NC(C)=O | -0.0808
Cc1ccc(S(=O)(=O)NCCN=C(CN2CCOCC2)NS(=O)(=O)c2ccc(C)cc2)cc1 | -0.52
Cc1ccccc1C(=O)NNC(=O)CSc1nnc(-c2ccncc2)n1-c1ccccc1 | -0.143
N#Cc1cc2sc3nc4ccccc4n3c2cc1C#N | 0.165
Cc1cc(C)nc(NN2C(=O)/C(=C/c3ccccc3)SC2=S)n1 | -0.183
Cc1ccccc1OCC(=O)NC(=S)Nc1ccc2c3c(cccc13)CC2 | 0.22
Cc1nn(C(C)C(=O)Nc2sc3c(c2C#N)CCCC3)c(C)c1[N+](=O)[O-] (centres undefined) | -0.3
Cc1ccc(NC(=O)COc2ccc(-n3ccnc3)cc2)cc1Cl | -0.0663
COC(=O)c1nn(-c2ccccc2)c(Sc2ccc(C)cc2)c1/C=N/O | 0.0362
CN(C1CCCCC1)S(=O)(=O)c1cccc(C(=O)OCC(=O)NC2CCCc3ccccc32)c1 (centres undefined) | -0.257
Cc1ccc(-n2nc3cc(C)c(NC(=S)NC(=O)/C=C/c4ccco4)cc3n2)cc1 | 0.457
COc1cccc(/C=C/C(=O)NCCc2ccc3c(c2)OCCO3)c1 | -0.402
COc1ccc(C(NC(=O)C(C)(C)C)NC(=O)C(C)(C)C)cc1 | 0.0766
CCCCOC(=O)CNc1nnc(SCC(=O)OCC)[nH]c1=O | -0.241
COc1ccc(Cl)cc1NC(=O)Cn1c(=O)n2nc(C)nc2c2ccccc21 | -0.181

Structure (SMILES) | z-score
CC(=O)Nc1ccc(NC(=O)C2CCN(c3c(Cc4ccccc4)c(C)nc4ncnn34)CC2)cc1 | -0.271
O=C(NC1CCCC1)C(c1ccc(F)cc1)N(Cc1ccc(F)cc1)C(=O)CCl (centres undefined) | -1.37
CC(C)c1ccc(C2N3CC4([N+](=O)[O-])CN2CC([N+](=O)[O-])(C3)C4(C)C)cc1 (centres undefined) | -0.2
Cc1cccc(NC(=O)C2CCN(S(=O)(=O)c3c(C)noc3/C=C/c3ccco3)CC2)n1 | -0.221
Cc1c(NC(=O)C(C#N)=C2CCCCC2)c(=O)n(-c2ccccc2)n1C | -0.108
CCCCCCn1c(N(CC)CC)nc2c1c(=O)[nH]c(=O)n2C | -0.704
O=C(O)COc1ccc(=O)n(-c2ccccc2)n1 | -0.184
CN1CCN(c2ccc([N+](=O)[O-])cc2C(=O)N2CCOCC2)CC1 | -0.246
CC(=O)Oc1ccc(C)cc1-n1nc2ccccc2n1 | -0.0619
NCCCCCc1nnc(SCc2ccc(Cl)c(Cl)c2)o1 | 0.93
COCc1cc(C)nc(OCC(=O)N/N=C/c2ccc(OC)c(OC)c2)c1C#N | -0.267
O=C(COc1nc2ccccc2nc1N1CCOCC1)NCC(F)(F)F | -0.11
CCOC(=O)CCc1c(C)c2ccc(O)cc2oc1=O | 0.0647
COc1ccc(C)cc1NC(=O)COCC(=O)O | 0.862
O=C(c1cccnc1)N1CCN(CCCc2ccccc2)CC1 | -0.407
O=C(CN1C(=O)NC2(CCc3ccccc32)C1=O)Nc1ccc(N2CCOCC2)cc1 (centres undefined) | -0.205
O=C(Nc1nccs1)c1ccc(S(=O)(=O)c2ccccc2)cc1 | 0.246
Cc1cccc(C)c1N(CC(=O)N/N=C/c1cc(Br)c(C)o1)S(C)(=O)=O | -0.0896
O=C(Cn1c(=O)n(CC2CCCO2)c(=O)c2ccccc21)N1CCN(c2ccccc2)CC1 (centres undefined) | -0.348
Cc1ccc(-c2nc3cccnc3s2)cc1NS(=O)(=O)c1ccc2c(c1)OCCO2 | 0.273
O=C(/C=C/c1ccc(OCCCF)cc1)NCc1ccc(Cl)c(Cl)c1 | -0.15
Cc1cccc(NC(=O)c2cc(-c3ccc(C)s3)nc3ccccc23)n1 | -0.074

Structure (SMILES) | z-score
COc1ccc(CN=C(C)c2c(C(F)(F)F)[nH]n(-c3nc4ccccc4s3)c2=O)cc1 | 0.0112
Cc1cc(Nc2ccc3c(c2)OCCO3)n2nc(C)nc2n1 | -0.0724
CCN(CC)S(=O)(=O)c1ccc2c(c1)nc(CCC(=O)Nc1cccc(C(F)(F)F)c1)n2CC | -0.277
CC(=O)N1CCN(S(=O)(=O)c2cccc(C(=O)Nc3nc4c(s3)CCCC4)c2)CC1 | -0.112
Cn1c(N=NC(=O)c2ccccc2)c(O)c2ccccc21 | -0.347
COc1cc(/C=C2\SC(=S)N(N3CCOCC3)C2=O)cc(OC)c1OC | -0.257
CC(C)n1nnnc1SCC(=O)NCc1ccc2c(c1)OCO2 | -0.277
CCC(=O)N1CCc2cc(S(=O)(=O)NC(C(=O)NC(C)c3ccccc3)C(C)C)ccc21 (centres undefined) | -0.383
COc1cccc(NC(=O)c2oc3ccccc3c2NC(=O)c2ccc3c(c2)OCO3)c1 | 0.209
COc1cc(/C=C2/SC(=S)N(C)C2=O)ccc1OC(=O)c1ccco1 | -0.377
c1ccc2c(c1)nnn2Cc1nnc2sc(-c3ccncc3)nn12 | -0.326
COc1ccccc1OC(=O)c1ccc(SC)cc1OC | 0.254
CC1CCN(S(=O)(=O)c2ccc3c(c2)C(=NO)c2cc(S(=O)(=O)N4CCC(C)CC4)ccc2-3)CC1 | 0.115
CCOC(=O)c1cnn(-c2nc(SC)nc3sc4c(c23)CCCC4)c1N | 0.141
O=C1c2ccccc2C(=O)N1CCCc1nc(-c2ccncc2)no1 | -0.0106
Cc1[nH]c2ccccc2c1/C=N/Nc1ccc(F)cc1F | 0.0188
CCS(=O)(=O)N1CCC(c2nc(-c3ccc(C(F)(F)F)cc3)no2)CC1 | -0.221
Cc1cc(Oc2ccccc2)nc(N2CCOCC2)n1 | -0.111
N/C(=N\S(=O)(=O)c1cccs1)c1ccccc1 | 0.185
O=C(O)CSCCC(=O)Nc1ccc(F)cc1 | -0.224
C=CCNC(=O)c1onc(CCl)c1C(=O)OC | -0.228
